According to PMC13572498, “Enhancing iNKT cell immunotherapy through the integration of optimized CAR endodomains and iNKT engagers” (Nature Communications, 2026):

Columns and labels:
[1] = target: T1, soluble biotinylated BCMA (recombinant BCMA-biotin) (UniProt Q02223 1-54, biotin); assay: cell-based or functional assay
T1 sequence (looked up): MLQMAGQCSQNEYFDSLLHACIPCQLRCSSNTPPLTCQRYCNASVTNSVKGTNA

[2] = target: T1, soluble biotinylated BCMA (recombinant …); assay: SPR; Biacore S200; soluble biotinylated BCMA immobilised on Series S SA sensorchip (3500 RU); biNTe injected, single-cycle kinetics, 4-point series 0.1, 1, 10, 200 nM, 400 s injections, 400 s dissociation; PBS-P+; details: both partners purified

B1: monovalent BCMA bispecific iNKT engager (heterodimeric, monovalent scFv-Fc human IgG1, LALA, 'key-in-hole'; anti-BCMA C11D5.3 scFv-Fc + anti-TCRVβ11 C21 … (bispecific antibody)
chain 1: DIVLTQSPPSLAMSLGKRATISCRASESVTILGSHLIHWYQQKPGQPPTLLIQLASNVQTGVPARFSGSGSRTDFTLTIDPVEEDDVAVYYCLQSRTIPRTFGGGTKLEIKGGGGSGGGGSGGGGSQIQLVQSGPELKKPGETVKISCKASGYTFTDYSINWVKRAPGKGLKWMGWINTETREPAYAYDFRGRFAFSLETSASTAYLQINNLKYEDTATYFCALDYSYAMDYWGQGTSVTVSSGGGGSGGGGSGGGGS[no letters for human IgG1 Fc with changes]
chain 2: DIKMTQSPSSMYASLGERVTITCKASQDINSYLSWFQQKAGKSPKTLIYRANRLVDGVPSRFSGSGSGQDYSLTISSLEYEDMGIYYCLQYDEFPFTFGGGTRLEIKGGGGSGGGGSGGGGSQVQLQQSGPEVVRPGVSVKISCKGSGYRFTDSAMHWVKQSHAKSLEWIGVISSYNGNTNYNQKFKGKATMTVDKSSSTAYMELARMTSEDSAIYYCARSRDAMDYWGQGTSVTVSSGGGGSGGGGSGGGGS[no letters for human IgG1 Fc with L234A L235A S354C Y407T (EU numbers)]
notes: anti-BCMA (C11D5.3) scFv (VL-(G4S)3-VH) - (G4S)3 - hinge-CH2-CH3 of human IgG1 with LALA and 'key-in-hole' change; left out here; anti-TCRVβ11 (C21) scFv (VL-(G4S)3-VH) - (G4S)3 - hinge-CH2-CH3 of human IgG1 with LALA and 'key-in-hole' change; Heterodimeric scFv-Fc; also called monovalent biNTe; monovalent engager; source: 293T cells, transiently co-transfected, purified from culture supernatant …
[1]
  EC50 measured against MM1.S cells in the presence of iNKT: 0.0062 nM
[2]
  Kd: 34.5 nM
